Results as given in article PMC3040668.
These are yes or no findings as the source states them, for the method shown. In cells and extracts the contact can be indirect. Some entries that bind do so weakly or less than the wild type.

Amino acid sequences for entries named in this document (tags omitted).
UniProt Q07812: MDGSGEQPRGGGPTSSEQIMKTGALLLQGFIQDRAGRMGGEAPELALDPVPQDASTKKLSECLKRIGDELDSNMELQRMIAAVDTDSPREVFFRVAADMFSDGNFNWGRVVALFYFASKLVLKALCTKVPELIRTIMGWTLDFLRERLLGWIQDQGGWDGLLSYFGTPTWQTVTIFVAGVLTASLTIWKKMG

Columns and labels:
[1] = target: Bax (human (endogenous in A549)) (UniProt Q07812); experiment: cross-linking; crude mitochondria from doxycycline-induced A549-Capsid or A549-Luciferase cells, with or without staurosporine for 6 h, cross-linked with 10 mM BMH for 30 min at room temperature; immunoblots with antibodies to Bax and capsid
[2] = target: Bax (human (endogenous in A549)) (UniProt Q07812); experiment: co-IP; lysates of A549 cells transiently expressing capsid constructs; IP with rabbit anti-Bax under non-denaturing conditions, immunoblot with goat anti-RV and mouse anti-Bax
[3] = target: Bax (human (endogenous in A549)) (UniProt Q07812); experiment: co-IP; lysates of A549 cells infected with RV (M33), staurosporine for 0 to 6 h from 42 h; IP with antibodies to capsid, Bax or Bak overnight at 4°C, immunoblot; lysis in 1% CHAPS or 1% NP-40 buffer with 150 mM NaCl
[4] = target: T1, Bak (human (endogenous in A549)) (UniProt Q16611); experiment: as above
T1 sequence: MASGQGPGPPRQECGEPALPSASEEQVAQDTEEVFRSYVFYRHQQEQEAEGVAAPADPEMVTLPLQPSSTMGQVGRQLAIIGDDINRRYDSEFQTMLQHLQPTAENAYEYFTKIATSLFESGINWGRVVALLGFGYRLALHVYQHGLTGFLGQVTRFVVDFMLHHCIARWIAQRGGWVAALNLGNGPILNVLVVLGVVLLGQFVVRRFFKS

B1: Rubella virus capsid protein (stably transduced A549-Capsid cells, doxycycline-induced) (protein, UniProt P08563 1-300)
chain: MASTTPITMEDLQKALEAQSRALRAGLAAGASQSRRPRPPRQRDSSTSGDDSGRDSGGPRRRRGNRGRGQRKDWSRAPPPPEERQESRSQTPAPKPSRAPPQQPQPPRMQTGRGGSAPRPELGPPTNPFQAAVARGLRPPLHDPDTEAPTEACVTSWLWSEGEGAVFYRVDLHFTNLGTPPLDEDGRWDPALMYNPCGPEPPAHVVRAYNQPAGDVRGVWGKGERTYAEQDFRVGGTRWHRLLRMPVRGLDGDTAPLPPHTTERIETRSARHPWRIRFGAPQAFLAGLLLAAVAVGTARA
binding [1]: binds

B2: Rubella virus capsid protein (pCMV5-capsid, transiently transfected) (protein, UniProt P08563 1-300)
chain: MASTTPITMEDLQKALEAQSRALRAGLAAGASQSRRPRPPRQRDSSTSGDDSGRDSGGPRRRRGNRGRGQRKDWSRAPPPPEERQESRSQTPAPKPSRAPPQQPQPPRMQTGRGGSAPRPELGPPTNPFQAAVARGLRPPLHDPDTEAPTEACVTSWLWSEGEGAVFYRVDLHFTNLGTPPLDEDGRWDPALMYNPCGPEPPAHVVRAYNQPAGDVRGVWGKGERTYAEQDFRVGGTRWHRLLRMPVRGLDGDTAPLPPHTTERIETRSARHPWRIRFGAPQAFLAGLLLAAVAVGTARA
binding [2]: binds

B3: Rubella virus capsid protein (in cells infected with the M33 strain) (protein, UniProt P08563 1-300)
chain: MASTTPITMEDLQKALEAQSRALRAGLAAGASQSRRPRPPRQRDSSTSGDDSGRDSGGPRRRRGNRGRGQRKDWSRAPPPPEERQESRSQTPAPKPSRAPPQQPQPPRMQTGRGGSAPRPELGPPTNPFQAAVARGLRPPLHDPDTEAPTEACVTSWLWSEGEGAVFYRVDLHFTNLGTPPLDEDGRWDPALMYNPCGPEPPAHVVRAYNQPAGDVRGVWGKGERTYAEQDFRVGGTRWHRLLRMPVRGLDGDTAPLPPHTTERIETRSARHPWRIRFGAPQAFLAGLLLAAVAVGTARA
binding [3]: binds | binding [4]: no binding
